Laboratory results as given in patent US10287617B2, “Methods for in vitro—in vivo efficacy determination” (COLORADO STATE UNIVERSITY RESEARCH FOUNDATION, priority 2014, dated 2019).

Procedure: Human plasma using lithium heparin as anticoagulant was provided by the EFS (Etablissement Français du Sang) of Montpellier, France. Plasma was spiked with the compound in order to obtain a final drug concentration of 100 ng/mL (expressed as non-salified compound). The spiked plasma (dedicated to C1h and C4h) was then incubated at 37° C. for 1 h and 4 h. Plasma samples were analyzed by LC-MS/MS following protein precipitation. The limit of quantification for compounds was 10 ng/mL.
10 μL of the sample was injected to Luna Phenomenex C8 (50 mm×2.0 mm, 3 μm). […] MS/MS condition used for detection: Finnigan TSQ Quantum disco instrument, Excalibur version 2.0 acquisition system, ESI positive ion ionization mode. The mean percent of difference between C1h or C4h and C0 concentrations was calculated. M % D (%)=100×[(C1h or C4h)−C0]/C0
The compounds were considered as stable if the mean percent of difference between C4h and C0 concentrations was less than 20%.
As described previously^19, blood used in the assay was collected using lithium heparin as anticoagulant. Plasma spiked with the compound was analyzed by LC-MS/MS following protein precipitation. The limit of quantification for compounds was 10 ng/mL. Chromatographic conditions for LC were as described previously. The mean percent of difference between C1h or C4h and C0 concentrations were calculated using the formula; M % D (%)=100×[(C1h or C4h)−C0]/C0. The compounds were considered as stable if the mean percent of difference between C4h and C0 concentrations was less than 20%.

SMILES	Plasma Stability (% hydrolysis) Human (4 h) [%]	Plasma Stability (% hydrolysis) Mouse (4 h) [%]	plasma stability (4 hours) in humans [%]
CN(C)c1cc2nc(C3CCCCC3)[nH]c2cc1NC(=O)c1ccc(OC(F)(F)F)cc1 [SB-P17G-A20]	0.1	24.4	99.9
CN(C)c1cc2[nH]c(C3CCCCC3)nc2cc1NC(=O)c1ccc(OC(F)(F)F)c(F)c1F [SB-P17G-A33]		−10.7	
CCCCOC(=O)Nc1cc2nc(C3CCCCC3)[nH]c2cc1N(C)C [SB-P17G-C2]	6.1		
